Test [1] deals with 3xFLAG-GOLGA7 (human), wild type (human) (UniProt Q7Z5G4). The test can be described thus: co-IP; FLAG-tagged human GOLGA7 or GOLGA7B constructs transfected into 293T GOLGA7 KO and control cells; lysis with 1% DDM; anti-FLAG M2 magnetic beads overnight at 4 °C; blots for endogenous ZDHHC5, ZDHHC8, ZDHHC9.
Test [2] concerns the target T1, 3xFLAG-GOLGA7B (human), wild type (human) (UniProt Q2TAP0).
T1 sequence: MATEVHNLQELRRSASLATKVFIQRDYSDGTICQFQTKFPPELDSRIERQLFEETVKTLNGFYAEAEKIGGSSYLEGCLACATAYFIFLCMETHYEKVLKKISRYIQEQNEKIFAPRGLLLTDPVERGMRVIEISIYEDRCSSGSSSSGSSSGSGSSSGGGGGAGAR
Described as above.

The chains behind the UniProt entries cited, without tags or fusion partners. Where a name states a change or a piece, a line headed by the entry shows the natural chain unless it says otherwise. A line that says so, or that is headed by a name, gives the form on record, which may keep a tag or linker.
UniProt Q7Z5G4: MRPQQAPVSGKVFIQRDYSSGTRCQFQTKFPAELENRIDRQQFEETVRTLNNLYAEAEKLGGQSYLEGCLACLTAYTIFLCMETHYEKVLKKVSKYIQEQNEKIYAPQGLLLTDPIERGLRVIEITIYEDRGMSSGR
UniProt Q8VDZ4: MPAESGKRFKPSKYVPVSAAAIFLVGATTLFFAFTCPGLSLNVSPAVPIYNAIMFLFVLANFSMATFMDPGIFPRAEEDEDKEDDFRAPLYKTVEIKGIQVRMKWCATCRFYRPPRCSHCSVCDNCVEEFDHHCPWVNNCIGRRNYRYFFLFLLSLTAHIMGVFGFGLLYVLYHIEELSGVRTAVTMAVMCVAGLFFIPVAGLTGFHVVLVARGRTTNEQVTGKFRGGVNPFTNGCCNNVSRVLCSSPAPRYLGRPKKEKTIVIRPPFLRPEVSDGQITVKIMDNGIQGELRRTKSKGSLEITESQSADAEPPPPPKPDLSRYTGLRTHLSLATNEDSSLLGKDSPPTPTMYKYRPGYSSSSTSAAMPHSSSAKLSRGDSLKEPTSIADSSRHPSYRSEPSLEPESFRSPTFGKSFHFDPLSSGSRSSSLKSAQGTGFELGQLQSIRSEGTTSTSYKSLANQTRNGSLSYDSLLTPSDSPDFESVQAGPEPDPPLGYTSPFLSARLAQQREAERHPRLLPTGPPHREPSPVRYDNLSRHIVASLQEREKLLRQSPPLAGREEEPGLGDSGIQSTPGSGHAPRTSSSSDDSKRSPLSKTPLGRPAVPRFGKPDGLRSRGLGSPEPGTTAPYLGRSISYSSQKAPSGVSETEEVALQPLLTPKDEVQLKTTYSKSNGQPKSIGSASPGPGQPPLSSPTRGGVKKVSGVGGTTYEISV
HA-Zdhhc5^ANYA (mouse Zdhhc5 double mutant) (Q8VDZ4, form named): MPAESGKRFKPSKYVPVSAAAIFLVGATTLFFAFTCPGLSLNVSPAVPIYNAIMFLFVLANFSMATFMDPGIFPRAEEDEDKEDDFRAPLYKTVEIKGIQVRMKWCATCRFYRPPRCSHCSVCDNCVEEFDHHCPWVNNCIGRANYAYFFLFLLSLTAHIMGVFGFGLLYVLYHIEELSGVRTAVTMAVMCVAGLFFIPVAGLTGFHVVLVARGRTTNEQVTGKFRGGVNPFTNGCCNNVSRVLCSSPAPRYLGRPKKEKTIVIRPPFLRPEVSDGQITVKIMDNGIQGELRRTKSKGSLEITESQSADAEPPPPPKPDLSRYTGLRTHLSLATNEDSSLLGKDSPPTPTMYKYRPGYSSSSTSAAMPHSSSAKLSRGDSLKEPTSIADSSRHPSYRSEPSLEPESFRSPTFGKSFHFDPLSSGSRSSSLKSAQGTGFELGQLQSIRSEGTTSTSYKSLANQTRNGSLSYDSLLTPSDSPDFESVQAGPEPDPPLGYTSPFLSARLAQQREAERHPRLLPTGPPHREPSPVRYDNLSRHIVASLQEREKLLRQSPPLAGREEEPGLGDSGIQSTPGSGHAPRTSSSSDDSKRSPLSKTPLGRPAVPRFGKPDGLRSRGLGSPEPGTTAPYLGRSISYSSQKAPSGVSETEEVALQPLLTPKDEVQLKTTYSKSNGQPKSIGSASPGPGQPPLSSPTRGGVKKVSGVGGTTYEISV
HA-Zdhhc5^RNAA (mouse Zdhhc5 double mutant) (Q8VDZ4, form named): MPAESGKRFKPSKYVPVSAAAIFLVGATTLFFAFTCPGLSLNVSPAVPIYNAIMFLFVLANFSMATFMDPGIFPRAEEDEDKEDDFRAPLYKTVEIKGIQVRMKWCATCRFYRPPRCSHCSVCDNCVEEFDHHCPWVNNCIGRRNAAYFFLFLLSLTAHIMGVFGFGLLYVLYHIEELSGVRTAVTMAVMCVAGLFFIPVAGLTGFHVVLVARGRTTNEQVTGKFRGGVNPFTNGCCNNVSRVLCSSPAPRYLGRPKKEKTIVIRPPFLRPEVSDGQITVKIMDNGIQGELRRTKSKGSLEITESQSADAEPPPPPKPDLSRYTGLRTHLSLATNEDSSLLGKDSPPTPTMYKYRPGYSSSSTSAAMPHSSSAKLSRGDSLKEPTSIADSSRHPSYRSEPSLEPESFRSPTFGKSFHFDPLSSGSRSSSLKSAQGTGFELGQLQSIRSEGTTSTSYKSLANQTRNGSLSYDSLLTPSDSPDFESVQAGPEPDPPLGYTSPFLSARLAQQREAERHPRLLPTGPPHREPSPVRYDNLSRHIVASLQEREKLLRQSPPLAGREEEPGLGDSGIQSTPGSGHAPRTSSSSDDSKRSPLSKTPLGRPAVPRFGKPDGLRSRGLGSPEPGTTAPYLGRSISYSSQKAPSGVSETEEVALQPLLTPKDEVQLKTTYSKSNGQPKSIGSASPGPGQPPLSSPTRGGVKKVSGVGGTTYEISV
HA-Zdhhc5^RNYA (mouse Zdhhc5 Arg147Ala) (Q8VDZ4, form named): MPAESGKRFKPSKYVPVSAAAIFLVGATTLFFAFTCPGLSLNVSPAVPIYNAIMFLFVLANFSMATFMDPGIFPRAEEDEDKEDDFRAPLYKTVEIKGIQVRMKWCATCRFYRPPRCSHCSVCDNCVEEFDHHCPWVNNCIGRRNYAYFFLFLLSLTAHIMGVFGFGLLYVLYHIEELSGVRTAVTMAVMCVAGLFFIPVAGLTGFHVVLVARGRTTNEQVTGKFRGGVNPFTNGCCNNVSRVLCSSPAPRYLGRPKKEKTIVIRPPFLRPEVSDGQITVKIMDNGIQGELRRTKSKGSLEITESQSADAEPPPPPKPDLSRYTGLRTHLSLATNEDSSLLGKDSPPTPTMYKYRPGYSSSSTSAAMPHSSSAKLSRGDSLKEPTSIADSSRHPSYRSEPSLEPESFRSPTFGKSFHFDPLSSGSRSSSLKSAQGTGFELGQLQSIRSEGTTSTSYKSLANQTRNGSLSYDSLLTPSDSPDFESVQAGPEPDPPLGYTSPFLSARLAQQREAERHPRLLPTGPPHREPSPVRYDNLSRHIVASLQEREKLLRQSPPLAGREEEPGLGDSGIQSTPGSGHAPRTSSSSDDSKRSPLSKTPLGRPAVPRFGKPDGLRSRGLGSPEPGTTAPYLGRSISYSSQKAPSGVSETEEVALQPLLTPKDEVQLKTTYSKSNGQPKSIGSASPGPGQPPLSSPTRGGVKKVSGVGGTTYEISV
HA-Zdhhc5^ANYR (mouse Zdhhc5 Arg144Ala) (Q8VDZ4, form named): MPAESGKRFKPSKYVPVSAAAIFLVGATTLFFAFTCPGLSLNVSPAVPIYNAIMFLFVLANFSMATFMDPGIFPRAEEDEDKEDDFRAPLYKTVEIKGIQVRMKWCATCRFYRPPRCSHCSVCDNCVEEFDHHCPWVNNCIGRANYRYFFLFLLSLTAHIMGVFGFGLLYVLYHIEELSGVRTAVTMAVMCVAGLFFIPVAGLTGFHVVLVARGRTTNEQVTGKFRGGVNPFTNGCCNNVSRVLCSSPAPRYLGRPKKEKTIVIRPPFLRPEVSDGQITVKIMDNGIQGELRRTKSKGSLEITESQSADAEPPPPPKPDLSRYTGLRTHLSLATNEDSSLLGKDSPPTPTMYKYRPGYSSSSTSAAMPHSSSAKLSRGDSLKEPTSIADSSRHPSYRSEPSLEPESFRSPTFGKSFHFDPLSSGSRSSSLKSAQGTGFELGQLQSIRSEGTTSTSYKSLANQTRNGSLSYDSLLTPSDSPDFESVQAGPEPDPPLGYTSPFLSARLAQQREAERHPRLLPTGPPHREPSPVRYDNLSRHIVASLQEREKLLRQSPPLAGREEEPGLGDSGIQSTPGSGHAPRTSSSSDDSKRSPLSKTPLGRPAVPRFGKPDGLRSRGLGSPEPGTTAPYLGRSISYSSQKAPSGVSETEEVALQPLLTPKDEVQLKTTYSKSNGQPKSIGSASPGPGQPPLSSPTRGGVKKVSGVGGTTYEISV
HA-Zdhhc5^RNAR (mouse Zdhhc5 Tyr146Ala) (Q8VDZ4, form named): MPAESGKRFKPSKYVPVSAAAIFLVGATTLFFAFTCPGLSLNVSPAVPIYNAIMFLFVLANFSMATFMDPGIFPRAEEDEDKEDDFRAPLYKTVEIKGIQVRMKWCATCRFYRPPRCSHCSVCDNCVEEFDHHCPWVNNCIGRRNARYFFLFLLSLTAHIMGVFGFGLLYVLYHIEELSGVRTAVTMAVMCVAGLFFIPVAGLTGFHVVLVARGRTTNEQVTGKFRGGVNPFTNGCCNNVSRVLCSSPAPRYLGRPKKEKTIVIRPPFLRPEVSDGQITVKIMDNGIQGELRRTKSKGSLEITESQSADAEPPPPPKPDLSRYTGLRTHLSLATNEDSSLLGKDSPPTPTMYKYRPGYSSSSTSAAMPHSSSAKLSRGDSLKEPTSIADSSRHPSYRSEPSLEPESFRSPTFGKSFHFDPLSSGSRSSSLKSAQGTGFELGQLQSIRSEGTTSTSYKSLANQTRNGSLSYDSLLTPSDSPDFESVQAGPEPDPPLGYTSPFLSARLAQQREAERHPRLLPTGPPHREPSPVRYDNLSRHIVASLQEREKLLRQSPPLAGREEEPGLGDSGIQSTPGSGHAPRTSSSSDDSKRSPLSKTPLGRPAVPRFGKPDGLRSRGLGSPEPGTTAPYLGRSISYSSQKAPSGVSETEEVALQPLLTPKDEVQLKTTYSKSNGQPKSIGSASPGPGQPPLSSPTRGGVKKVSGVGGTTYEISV
HA-Zdhhc5^ANAA (mouse Zdhhc5 triple alanine mutant) (Q8VDZ4, form named): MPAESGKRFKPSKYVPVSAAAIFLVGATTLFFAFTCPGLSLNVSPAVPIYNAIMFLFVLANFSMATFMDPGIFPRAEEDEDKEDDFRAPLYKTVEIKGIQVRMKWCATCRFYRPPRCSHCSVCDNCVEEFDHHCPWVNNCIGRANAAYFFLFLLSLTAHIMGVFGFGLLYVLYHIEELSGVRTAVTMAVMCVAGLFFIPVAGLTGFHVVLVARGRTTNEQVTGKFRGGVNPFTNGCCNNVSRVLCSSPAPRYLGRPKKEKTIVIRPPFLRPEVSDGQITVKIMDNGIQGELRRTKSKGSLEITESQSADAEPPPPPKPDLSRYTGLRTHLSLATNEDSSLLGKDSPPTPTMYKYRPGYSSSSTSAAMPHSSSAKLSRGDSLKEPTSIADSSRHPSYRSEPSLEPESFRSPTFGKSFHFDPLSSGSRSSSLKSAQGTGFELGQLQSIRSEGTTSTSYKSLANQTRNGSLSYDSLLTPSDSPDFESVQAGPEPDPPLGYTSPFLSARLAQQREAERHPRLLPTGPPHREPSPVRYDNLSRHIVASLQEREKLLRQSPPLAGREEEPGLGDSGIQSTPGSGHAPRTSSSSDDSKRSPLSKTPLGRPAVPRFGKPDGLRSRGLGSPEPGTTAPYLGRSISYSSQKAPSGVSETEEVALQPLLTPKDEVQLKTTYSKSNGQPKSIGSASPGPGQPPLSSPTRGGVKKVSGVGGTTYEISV
UniProt Q9Y397: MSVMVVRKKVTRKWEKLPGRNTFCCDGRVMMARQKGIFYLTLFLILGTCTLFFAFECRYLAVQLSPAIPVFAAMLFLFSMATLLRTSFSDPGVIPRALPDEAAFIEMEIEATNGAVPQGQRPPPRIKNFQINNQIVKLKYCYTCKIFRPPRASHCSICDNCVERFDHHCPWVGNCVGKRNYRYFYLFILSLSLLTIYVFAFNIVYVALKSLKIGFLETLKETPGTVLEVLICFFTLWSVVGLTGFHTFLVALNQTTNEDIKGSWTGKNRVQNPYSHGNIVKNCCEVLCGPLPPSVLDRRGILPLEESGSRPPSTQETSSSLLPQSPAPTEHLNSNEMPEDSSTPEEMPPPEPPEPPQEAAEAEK
UniProt Q9ULC8: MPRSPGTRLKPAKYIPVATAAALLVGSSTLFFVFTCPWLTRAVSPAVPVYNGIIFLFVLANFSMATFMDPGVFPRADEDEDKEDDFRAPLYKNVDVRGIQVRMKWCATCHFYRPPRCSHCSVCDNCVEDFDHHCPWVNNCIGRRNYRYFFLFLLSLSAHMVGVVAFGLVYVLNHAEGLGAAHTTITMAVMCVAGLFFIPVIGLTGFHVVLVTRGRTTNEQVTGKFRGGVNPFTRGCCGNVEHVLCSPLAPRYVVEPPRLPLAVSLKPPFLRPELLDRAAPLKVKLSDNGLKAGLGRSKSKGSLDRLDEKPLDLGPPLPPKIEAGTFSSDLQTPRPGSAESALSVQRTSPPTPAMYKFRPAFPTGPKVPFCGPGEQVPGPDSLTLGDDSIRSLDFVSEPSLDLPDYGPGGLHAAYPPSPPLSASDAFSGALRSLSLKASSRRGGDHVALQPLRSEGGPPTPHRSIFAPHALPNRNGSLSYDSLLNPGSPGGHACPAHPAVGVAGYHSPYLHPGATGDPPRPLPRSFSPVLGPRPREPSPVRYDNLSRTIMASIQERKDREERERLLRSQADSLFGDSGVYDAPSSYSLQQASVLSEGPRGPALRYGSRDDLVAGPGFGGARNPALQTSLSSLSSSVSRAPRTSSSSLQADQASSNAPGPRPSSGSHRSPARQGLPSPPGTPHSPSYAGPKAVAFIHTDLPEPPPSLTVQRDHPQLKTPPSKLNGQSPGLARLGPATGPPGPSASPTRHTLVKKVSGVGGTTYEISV

In test [3] the target is HA-Zdhhc5^ANYA (mouse Zdhhc5 double mutant) (mouse) (UniProt Q8VDZ4). Nature of the test: co-IP; HA-tagged mouse Zdhhc proteins transfected into 293T ZDHHC5 KO and control cells; lysis in 50 mM Tris-HCl pH 7.4, 150 mM NaCl, 2 mM EDTA, 1% DDM; anti-HA magnetic beads overnight at 4 °C; washes in TBS with 0.5% DDM; blots for endogenous GOLGA7 or ZDHHC9.
The target in test [4] is HA-Zdhhc5^RNAA (mouse Zdhhc5 double mutant) (mouse) (UniProt Q8VDZ4). The test is described as above.
Test [5] concerns the target HA-Zdhhc5^RNYA (mouse Zdhhc5 Arg147Ala) (mouse) (UniProt Q8VDZ4). The description is as above.
Test [6] deals with HA-Zdhhc5^ANYR (mouse Zdhhc5 Arg144Ala) (mouse) (UniProt Q8VDZ4). The test is described as above.
Test [7] addresses HA-Zdhhc5^RNAR (mouse Zdhhc5 Tyr146Ala) (mouse) (UniProt Q8VDZ4). Described as above.
Test [8] deals with HA-Zdhhc5^ANAA (mouse Zdhhc5 triple alanine mutant) (mouse) (UniProt Q8VDZ4). The test is described as above.
Test [9] concerns the target HA-tagged mouse Zdhhc5, wild type (mouse) (UniProt Q8VDZ4). Described as above.
In test [10] the target is T2, GOLGA7B^2CS (human GOLGA7B Cys78Ser Cys81Ser), 3xFLAG (human) (UniProt Q2TAP0).
T2 sequence: T1 sequence with C78S, C81S
The test can be described thus: co-IP; FLAG-tagged human GOLGA7 or GOLGA7B constructs transfected into 293T GOLGA7 KO and control cells; lysis with 1% DDM; anti-FLAG M2 magnetic beads overnight at 4 °C; blots for endogenous ZDHHC5, ZDHHC8, ZDHHC9.

Numbering of substitutions follows the chain as printed. Results are given in words; binding and its absence hold for the method and conditions named. Binding seen in cells or lysates may run through a third protein. Some entries that bind do so weakly or less than the wild type. For some assays here: Where a sequence is shown, tags or fusion partners need not be part of it.

Take “endogenous human ZDHHC9 (from UniProt Q9Y397 1-364) (enzyme)”: the binding result in test [1] was “binds”; in test [2], “no binding”; in test [3], “no binding”; in test [4], “no binding”; in test [5], “no binding”; in [6] it was “no binding”. The binding entry in test [7], in test [8] and in test [9] was “no binding” throughout.

Consider “endogenous human ZDHHC8 (from UniProt Q9ULC8 1-765) (enzyme)”, for which the binding entry is reported as “binds” in test [2] and “no binding” in test [10].

These data come from paper PMC12528901.
